In all, about 310,000 compounds went through this assay and about 14,000 (4.5%) showed an effect of 50% or more. The effect is printed as a negative number. Some of the results follow.
Target: human ether-à-go-go-related gene (hERG) potassium channel (human, UniProt Q12809)
Test: primary screen, population patch clamp on CHO cells stably expressing hERG
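Also: peak tail current of the secondary pulse compared with the same well before compound.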

Chain of human ether-à-go-go-related gene (hERG) potassium channel (Q12809 whole entry, looked up): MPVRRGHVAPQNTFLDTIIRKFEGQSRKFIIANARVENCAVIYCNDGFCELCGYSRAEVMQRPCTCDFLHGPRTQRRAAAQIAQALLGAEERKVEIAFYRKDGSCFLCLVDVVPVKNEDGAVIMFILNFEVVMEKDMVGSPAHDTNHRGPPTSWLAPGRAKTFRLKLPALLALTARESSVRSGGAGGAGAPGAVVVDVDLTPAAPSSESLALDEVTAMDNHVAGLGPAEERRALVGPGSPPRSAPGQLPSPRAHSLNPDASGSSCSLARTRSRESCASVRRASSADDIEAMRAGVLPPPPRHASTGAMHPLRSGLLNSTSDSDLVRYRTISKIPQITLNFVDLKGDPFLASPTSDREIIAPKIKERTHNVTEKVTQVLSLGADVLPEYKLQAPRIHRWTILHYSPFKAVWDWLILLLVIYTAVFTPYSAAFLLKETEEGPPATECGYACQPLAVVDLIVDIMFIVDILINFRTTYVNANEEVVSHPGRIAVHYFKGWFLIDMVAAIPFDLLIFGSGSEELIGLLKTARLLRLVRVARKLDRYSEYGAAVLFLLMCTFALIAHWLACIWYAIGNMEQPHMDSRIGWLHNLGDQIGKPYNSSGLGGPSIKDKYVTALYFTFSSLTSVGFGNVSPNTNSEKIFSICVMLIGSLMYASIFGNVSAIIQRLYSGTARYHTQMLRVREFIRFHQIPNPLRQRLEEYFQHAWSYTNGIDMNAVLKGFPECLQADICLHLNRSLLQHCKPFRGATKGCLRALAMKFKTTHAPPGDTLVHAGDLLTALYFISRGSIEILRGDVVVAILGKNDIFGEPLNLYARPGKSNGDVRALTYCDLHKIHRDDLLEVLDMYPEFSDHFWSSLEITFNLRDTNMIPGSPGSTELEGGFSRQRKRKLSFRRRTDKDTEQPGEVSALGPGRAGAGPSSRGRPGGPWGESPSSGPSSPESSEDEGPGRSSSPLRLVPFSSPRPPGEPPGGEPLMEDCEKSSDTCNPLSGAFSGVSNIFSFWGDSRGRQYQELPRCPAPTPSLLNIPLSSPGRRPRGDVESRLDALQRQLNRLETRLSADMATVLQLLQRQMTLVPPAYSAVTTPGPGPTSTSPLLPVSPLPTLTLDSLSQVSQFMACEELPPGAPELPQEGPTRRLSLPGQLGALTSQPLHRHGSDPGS

Compound | hERG current change (%, negative = inhibition) at 10uM
Cc1ccc(Cl)c(OCC(=O)Nc2sc(C)c(C)c2C#N)c1 | 6.08%
COc1ccc(Oc2nc3ccccc3n3cccc23)cc1 | 3.63%
O=C(CSc1nnc(-c2cccnc2)o1)Nc1ccc(Br)cc1 | 12.9%
CCN1CCN(CC(=O)Nc2ccc(N(C)C)cc2)CC1.O=C(O)C(=O)O | -2.52%
CCn1c2ccccc2c2cc(NS(=O)(=O)c3ccc(C)cc3)ccc21 | 14.1%
COc1ccc2[nH]c(C(=O)NCc3ccc4c(c3)OCO4)cc2c1 | 10.4%
Cc1ccccc1-n1c(=O)c2ccccc2n(CC(=O)NCc2ccco2)c1=O | -7.12%
COc1ccc(NS(=O)(=O)c2ccc3nc(COc4cccc5ccccc45)[nH]c3c2)cc1 | 21.9%
Cc1ccc(NS(=O)(=O)N2CCOCC2)cc1Cl | 0.803%
COc1ccc(C2CC(c3ccc4ccccc4c3)=NN2C(=O)COC(=O)C2CCC(=O)N2)cc1 (stereo not drawn) | 1.4%
Cc1cccc(C(C)C)c1NC(=O)COC(=O)CCN1C(=O)C2CC=CCC2C1=O (stereo not drawn) | 3.04%
C=C1N(c2ccc(Cl)cc2)C(=O)OC1(C)C | -11.4%
Cc1cccc(-n2c(SCc3ccc([N+](=O)[O-])cc3)nnc2-c2c[nH]c3ccccc23)c1 | 16.5%
CCCCC(c1nnnn1CCOC)N1CCN(CC)CC1.Cl (stereo not drawn) | -3.08%
COc1ccc(N2CCN(C(=O)c3ccc4c(c3)OCO4)CC2)cc1 | -21.7%
CC(=O)N1CC(=O)Nc2ccc(F)cc2C1c1ccccc1 (stereo not drawn) | 8.94%
CC(=O)OCCn1c(Br)nc2c1c(=O)[nH]c(=O)n2C | 6.43%
O=C(OCC(=O)c1ccc[nH]1)c1ccc([N+](=O)[O-])cc1 | -21.4%
Cc1ccc(S(=O)(=O)/C(C#N)=C/c2c(N3CCC(C(N)=O)CC3)nc3ccccn3c2=O)cc1 | -55.3%
Cc1ccc(C2=NCCn3c2c2ccc(C(F)(F)F)cc2[n+]3[O-])cc1 | -26.2%
COc1cc(C(=O)Nc2ccncc2)cc(OC)c1OC | -4.68%
COC(=O)c1ccc(Oc2ccc(S(=O)(=O)N3CCCCC3)cc2N)cc1 | 5.03%
C=CCn1c(C)cc(C(=O)CSc2nnc(NCc3ccccc3)s2)c1C | -8.54%

Compound | hERG current change (%, negative = inhibition) at 10uM
Oc1ccc(Br)cc1Cn1nnc2ccccc21 | 9.97%
O=C(CSC1=Nc2ccccc2C2CC=NN12)Nc1ccc(F)cc1Cl (stereo not drawn) | 21.1%
CCOc1cc(NC(=O)c2ccco2)c(OCC)cc1NC(=O)CCC(=O)NCc1cccnc1 | -9.73%
O=C(NC1CCCCC1)c1ccc(-c2cccc([N+](=O)[O-])c2)o1 | 12.4%
CCCN1C2CCCC1CC(NC(C)=O)C2 (stereo not drawn) | 18%
Cn1c(CCC(=O)OCC(=O)Nc2ccc(Oc3ccccc3)cc2)nc(=O)c2ccccc21 | -53.3%
O=C(NC(Cc1ccccc1)C(=O)N1CCCC(C(F)(F)F)C1)c1ccccc1 (stereo not drawn) | -21.7%
O=C1[C@@H]2CSCN2C(=O)CN1CCc1cccc(F)c1 | -20.9%
CCCCCN(C(=O)CCC(=O)OCCOc1ccccc1Cl)c1c(N)n(CCCC)c(=O)[nH]c1=O | -41.3%
O=C(O)C1CCN(S(=O)(=O)c2ccc(Oc3ccccc3)cc2)CC1 | 17.8%
CCNC(=S)N1CCN(S(=O)(=O)c2ccccc2C(F)(F)F)CC1 | -9.38%
Cc1ccc(NC(=S)N2CCC(NC(=O)C3CCCCC3)CC2)cc1C | 11.5%
Cc1ccc(C)c(S(=O)(=O)n2cnc3ccccc32)c1 | 8.17%
COC(=O)c1ccc2nc(C)c(C)nc2c1 | 15.8%
CCN(CC)C(=O)N1CCN(C(=O)c2ccc(C)cn2)CC1 | 14%
CCOCCCNC(=O)CCS(=O)(=O)Cc1ccc(C)cc1 | -7.5%
CC(C)(C)OC(=O)NC(CCCCNC=O)C(=O)O (stereo not drawn) | 2.93%
O=C(O)CCCCCNC(=O)c1ccc(Br)cc1 | 8.41%
COc1ccc(Nc2ncnc3sc(-c4ccccc4)cc23)cc1OC | -1.28%
CC(=O)N(C1=NCCCS1)c1ccc(F)cc1 | -16.7%
O=C(Nc1cccc(Cl)c1)c1cc(-c2ccco2)on1 | 4.82%
COc1cc(CC(=O)OCC(=O)NC2CCCCC2)cc(OC)c1OC | 6.66%

Source: article PMC4336329 (PLoS ONE, 2015)
